Data taken from the supplement of paper PMC8183993.
Counter-ions that a name gives are not always drawn. ± gives the standard deviation of the averaged measurements. Whole data set: some 3,100 compounds, median “mean cytoplasmic OPP incorporation (global translation) relative to DMSO” near 100, cut for the lowest 2% near 56. The list shows a part of the results. Square brackets hold non-standard residues; d marks the D form. Peptide text beside a SMILES is read from it.

system: U2OS; assay: mean cytoplasmic OPP incorporation (global translation) relative to DMSO (% of DMSO); higher = more protein synthesis; conditions: 10 µM; 24 h
Method: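 Primary image-based screen in U2OS cells: compounds at 10 uM for 24 h, then a 1 h o-propargyl-puromycin (OPP) pulse, click labelling, and high-throughput microscopy. Mean cytoplasmic OPP intensity and nuclei count were normalised to DMSO wells within each plate (DMSO = 100) and averaged over triplicate plates.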

| SMILES | mean cytoplasmic OPP incorporation |
| --- | --- |
| COc1ccc(CCN2CCN(CCCc3ccccc3)CC2)cc1OC | 111 |
| CC[C@H]1OC(=O)C[C@@H](O)[C@H](C)[C@@H](O[C@@H]2O[C@H](C)[C@@H](O)[C@H](N(C)C)[C@H]2O)[C@@H](CCN2C[C@H](C)C[C@H](C)C2)C[C@@H](C)C(=O)/C=C/C(C)=C/[C@@H]1CO[C@@H]1O[C@H](C)[C@@H](O)[C@@H](OC)[C@H]1OC [Tilmicosin] | 105 |
| CNCCCC12CCC(c3ccccc31)c1ccccc12 [Maprotiline hydrochloride] | 105 ± 2.3 |
| CCc1c(O)cc(O)c(C(=O)c2ccc(OCCN3CCOCC3)c(OC)c2)c1CC(=O)N(CCOC)CCOC | 91.6 |
| NCC1CCN(c2nccc(-c3ccc4ccccc4c3)n2)CC1 | 88.3 |
| Cc1coc2c1C(=O)C(=O)c1c-2ccc2c1CCCC2(C)C [Tanshinone IIA] | 118 |
| Cc1cn2cc(C(=O)N(C)CCO)cc(N[C@@H]3CCOc4cccc(C)c43)c2n1 | 117 |
| CC(C)(C)n1nc(-c2cccc3ccccc23)c2c(N)ncnc21 [1-Naphthyl PP1] | 93 |
| COc1ccc2c(c1)c(CC(=O)N1CCOCC1)c(C)n2C(=O)c1ccc(Cl)cc1 | 112 |
| OC(c1cc(C(F)(F)F)nc2c(C(F)(F)F)cccc12)C1CCCCN1 (stereo unspecified) [Mefloquine hydrochloride] | 108 |
| CC(=O)OCOC(c1cc([N+](=O)[O-])ccc1Oc1ccc(Br)cc1)P(=O)(OCOC(C)=O)OCOC(C)=O (stereo unspecified) | 101 |
| CN(C)Cc1cccc(N=C(c2ccccc2)c2c(O)[nH]c3cc(C(=O)N(C)C)ccc23)c1 | 92.8 |
| C[C@@H]1C[C@H]2[C@@H]3C[C@H](F)C4=CC(=O)C=C[C@]4(C)[C@@]3(Cl)[C@@H](O)C[C@]2(C)[C@H]1C(=O)COC(=O)C(C)(C)C [Clocortolone pivalate] | 96.5 |
| CC1(C)C[C@@H]1C(=O)N/C(=C\CCCCSC[C@H](N)C(=O)O)C(=O)O [Cilastatin] | 103 |
| CC1(C)C[C@@H]1C(=O)N/C(=C\CCCCSC[C@H](N)C(=O)O)C(=O)O [Cilastatin sodium] | 96.2 |
| Cc1c(C)c2c(c(C)c1OC(=O)CCC(=O)O)CC[C@@](C)(CCC[C@H](C)CCC[C@H](C)CCCC(C)C)O2 [Tocopherol succinate] | 96.4 |
| Oc1cc2c(cc1O)CN(C(=S)NCCc1ccc(Cl)cc1)CCC2 [Capsazepine] | 94.9 |
| CCCCCCC(=O)OC1CC(C)(C)NC(C)(C)C1 [TMPH hydrochloride] | 101 |
| CCN(CCN(C)C)C(=O)CNCc1cc(C(N)=O)ccn1 | 96.2 |
| CC(=O)O[C@H]1C[C@@H]2CC[C@@H]3[C@H](CC[C@@]4(C)[C@H]3C[C@H]([N+]3(C)CCCCC3)[C@@H]4OC(C)=O)[C@@]2(C)C[C@@H]1N1CCCCC1 [Vecuronium bromide] | 102 |
| CC(=O)O[C@H]1C[C@@H]2CC[C@@H]3[C@H](CC[C@@]4(C)[C@H]3C[C@H]([N+]3(C)CCCCC3)[C@@H]4OC(C)=O)[C@@]2(C)C[C@@H]1N1CCCCC1 [Vecuronium Bromide] | 100 |
| CCCCCCCC/C=C\CCCCCCCC(=O)NCCO [Oleylethanolamide] | 105 |
| CCCCCCCC/C=C\CCCCCCCC(=O)NCCO [N-Oleoylethanolamide] | 99.6 |
| C[C@@H](O)[C@H]1C(=O)N2C(C(=O)O)=C(S[C@@H]3CN[C@H](C(=O)N(C)C)C3)[C@H](C)[C@H]12 [Meropenem] | 106 ± 6.2 |
| CC(=O)NCC(=O)N[C@H](CCC(=O)O)C(=O)O [N-Acetylglycyl-D-glutamic acid] (Ac-Gly-[dE]-OH) | 102 |
| C[C@@H]1O[C@@H](OC[C@H]2O[C@@H](Oc3c(-c4ccc(OCCO)c(OCCO)c4)oc4cc(OCCO)cc(O)c4c3=O)[C@H](O)[C@@H](O)[C@@H]2O)[C@H](O)[C@H](O)[C@H]1O [Troxerutin] | 103 |

| SMILES | mean cytoplasmic OPP incorporation |
| --- | --- |
| CCN(CC)C(=O)/C(C#N)=C/c1cc(O)c(O)c([N+](=O)[O-])c1 [Entacapone] | 103 |
| C[C@]12C=CC(=O)C=C1CC[C@H]1[C@@H]3C[C@@H](O)[C@](O)(C(=O)CO)[C@@]3(C)C[C@H](O)[C@@]12F [Triamcinolone] | 101 |
| C[C@]12C=CC(=O)C=C1CC[C@H]1[C@@H]3C[C@@H](O)[C@](O)(C(=O)CO)[C@@]3(C)C[C@H](O)[C@@]12F [Triamcinolone (Aristocort)] | 88.3 |
| CC1(C)O[C@@H]2C[C@H]3[C@@H]4CCC5=CC(=O)CC[C@]5(C)[C@@]4(F)[C@@H](O)C[C@]3(C)[C@]2(C(=O)CCl)O1 [Halcinonide] | 109 |
| OCCN1CCN(CCCN2c3ccccc3C=Cc3ccccc32)CC1 [Opipramol dihydrochloride] | 110 |
| COc1cccc(Nc2c(C(N)=O)cnc3c(C)cc(S(=O)(=O)c4cccc(C(=O)N(C)C)c4)cc23)c1 | 114 |
| O=C(O)C=C1CCCc2ccccc2C1O (stereo unspecified) | 98.2 |
| CC(=O)CCCCn1c(=O)c2c(ncn2C)n(C)c1=O [Pentoxifylline] | 94.3 |
| CN1C(=O)OC(C)(C)C1=O [Trimethadione] | 101 |
| CN(C/C=C/c1ccccc1)Cc1cccc2ccccc12 [Naftifine hydrochloride] | 103 |
| COc1cc2c(cc1OCCCN1CCCC1)N=C(N)C21CCC1 | 91.2 |
| O=c1c(-c2ccc(O)cc2)coc2cc(O)ccc12 [Daidzein] | 103 |
| O=C(O)CCCCC(CCSCc1ccccc1)SCc1ccccc1 (stereo unspecified) | 99.7 |
| CC(C)NC[C@H](O)COc1cccc2ccccc12 [(S)-propranolol hydrochloride] | 115 |
| CC(C)NC[C@H](O)COc1cccc2ccccc12 [(S)-(-)-Propranolol hydrochloride] | 105 |
| CC(C)(C)c1nc(-c2cccc(NS(=O)(=O)c3c(F)cccc3F)c2F)c(-c2ccnc(N)n2)s1 | 119 ± 2.5 |
| C[C@H]1O[C@@H](n2cc(F)c(=O)[nH]c2=O)[C@H](O)[C@@H]1O [Doxifluridine] | 99.4 |
| CC(=O)N(OCc1ccccc1)[C@H]1c2cc(C#N)ccc2OC(C)(C)[C@H]1O | 95.4 |
| N[C@@H](Cc1cc(CP(=O)(O)O)cc(-c2ccccc2Cl)c1)C(=O)O | 103 |
| OCC1OC(n2cnc3c(NC4CCCC4)nc(Cl)nc32)C(O)C1O (stereo unspecified) [2-Chloro-N6-cyclopentyladenosine] | 116 |
| O=C(O)C1=CO[C@@H](O[C@@H]2O[C@H](CO)[C@@H](O)[C@H](O)[C@H]2O)[C@@H]2C(CO)=CC[C@H]12 [Geniposidic acid] | 101 |
| Cc1ccnc(NS(=O)(=O)c2ccc(NC(=O)Nc3ccc(S(=O)(=O)Nc4nccc(C)n4)cc3)cc2)n1 | 96.2 |
| CCN1CCCC(OC(=O)C(c2ccccc2)c2ccccc2)C1 (stereo unspecified) [Piperidolate hydrochloride] | 122 |
| CC(C)c1ccc2c(c1)CC[C@H]1[C@](C)(CN)CCC[C@]21C [Lylamine hydrochloride] | 122 |
| COc1c(C)c2c(c(O)c1C/C=C(\C)CCC(=O)O)C(=O)OC2 [Mycophenolic acid] | 65.8 |
| CS(=O)(=O)c1ccc(-c2cnc(N)c(C(=O)Nc3ccccc3)n2)cc1 | 115 ± 6.1 |

| SMILES | mean cytoplasmic OPP incorporation |
| --- | --- |
| NS(=O)(=O)c1cc(Cl)c(Cl)c(S(N)(=O)=O)c1 [Dichlorphenamide] | 106 |
| O=C(c1ccc(/C=C/c2n[nH]c3ccccc23)cc1)N1CCNCC1 | 72.1 |
| C/C(=C\C(=O)Nc1ccccc1C(=O)O)c1ccc2ccccc2c1 | 93.1 |
| C[C@]12CC[C@@H](O)C[C@@H]1CC[C@@H]1[C@@H]2CC[C@]2(C)C=CC[C@@H]12 [3a, 5a-Androstenol] | 97.3 |
| Cc1ccc(-n2sc(=O)n(Cc3ccc(F)cc3)c2=O)cc1 | 103 |
| Cc1cc(Cl)ccc1OCCCC(=O)NO [Droxinostat] | 92.7 |
| O=C(NCCN1CCOCC1)c1ccc(Cl)cc1 [Moclobemide] | 91.9 |
| CN(C)CCCSC(=N)N [Dimaprit dihydrochloride] | 97.9 ± 1.2 |
| C[C@H](Cc1cc2c(c(C(N)=O)c1)N(CCCO)CC2)NCCOc1ccccc1OCC(F)(F)F [Silodosin (Rapaflo)] | 115 |
| C=CCNC(=O)c1cc([N+](=O)[O-])cc2c(=O)[nH]c(Nc3ccc(Cl)c(Cl)c3)nc12 | 95.4 |
| Cc1onc(-c2c(F)cccc2Cl)c1C(=O)N[C@@H]1C(=O)N2[C@@H]1SC(C)(C)[C@@H]2C(=O)O [Flucloxacillin sodium] | 100 |
| CCC[S+]([O-])c1ccc2[nH]c(NC(=O)OC)nc2c1 (stereo unspecified) [Albendazole Oxide (Ricobendazole)] | 94.4 |
| NC(=O)OCC(COC(N)=O)c1ccccc1 [Felbamate] | 103 |
| Cc1ccnc(NS(=O)(=O)c2ccc(N)cc2)n1 [Sulfamerazine] | 108 |
| C[C@H]1NC(=O)NC1=O [Methylhydantoin-5-(D)] | 97.8 |
| N=C(N)NCc1cccc(I)c1 [Iobenguane sulfate] | 93.4 |
| O=C1CCN(c2ccccc2)N1 [Phenidone] | 101 |
| CN1CCC(Nc2ncc3ncnc(Nc4ccc(F)c(Cl)c4)c3n2)CC1 [BIBX 1382 dihydrochloride] | 102 |
| COC(=O)Nc1ccc(-c2nc(N3CCOCC3)c3cnn(C4CCN(C(=O)OC)CC4)c3n2)cc1 | 86.5 |
| Nc1ccc(S(=O)(=O)Nc2cnc3ccccc3n2)cc1 [Sulfaquinoxaline sodium salt] | 97.1 |
| CNC[C@H](O)[C@@H](O)[C@H](O)[C@H](O)CO [Meglumine] | 107 |
| NCCCC(O)(P(=O)(O)O)P(=O)(O)O [Alendronate sodium] | 97.3 |
| NCCCC(O)(P(=O)(O)O)P(=O)(O)O [Alendronate] | 104 |
| NCCCC(O)(P(=O)(O)O)P(=O)(O)O [Alendronate (Fosamax)] | 102 |
